# From PubChem BioAssay AID652104 (National Center for Advancing Translational Sciences (NCATS), 2013)
# Screen size: about 410,000 compounds; about 7,200 (1.8%) were called active. Inconclusive means that the source gave no clear call. Such entries were picked first, then a sample of the others. Calls follow the shape of the dose curve; as a rule, active = well fitted activation curve with a large enough effect; inconclusive = small, poorly fitted or top-dose-only effect, or another doubt; inactive = no such curve, though single readings can be large or run the other way. No potency is given beside an inconclusive call; the fits are too rough.
# Test: qHTS of TDP-43 Inhibitors; also: nearly all actives have a fitted effect of over 50% in size; as to growth rescue (activation): % of control where 0% means no effect
# Details: TDP-43 expressing yeast growth rescue, BacTiter-Glo, 24 h; growth rescue (activation): at 46.1 µM (top of the series) unless noted
# In short: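 Luminescence from BacTiter-Glo reports growth of TDP-43-expressing yeast after 24 hr at 30 deg C with compound. Cells were raffinose-pregrown to mid-log, then seeded in galactose medium at OD600=0.02.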
# Potency is read from the fitted curve at half-maximal effect; tags tell the direction and shape of the fitted curve.
SMILES,Potency,growth rescue (activation)
O=C(Nc1ccc(Cl)c(-c2nc3ccccc3[nH]2)c1)c1cccnc1,inactive,–
O=C1c2ccccc2C(c2nc3ccccc3[nH]2)N1c1ccccc1 (stereo unspecified),"inconclusive [activator, partial curve]",–
C[C@H]1CN([C@@H](C)CO)S(=O)(=O)c2ccc(C#CC3CC3)cc2O[C@@H]1CN(C)S(C)(=O)=O,"inconclusive [activator, single point]",–
CCn1nc(C)c2c(-c3ccccc3)cc(=O)n(C(C)C(=O)NCCc3ccc(OC)c(OC)c3)c21 (stereo unspecified),active: 15.8 µM,–
CC(=O)c1ccccc1NC(=O)COC(=O)c1c(C)nn(-c2ccccc2)c1C,inactive,–
O=C(c1ccc([N+](=O)[O-])s1)N1CCc2ccccc2C1,"inconclusive [activator, partial curve]",–
COc1ccc([C@H]2C[C@@H](O)C[C@@H](CCn3cc(-c4ccccc4)nn3)O2)cc1,"inconclusive [activator, partial curve]",–
CCS(=O)(=O)c1ncc(Cl)c(C(=O)Nc2ccccc2)n1,active: 11.2 µM,–
Cc1cccc(Cc2cnc(NC(=O)c3ccc(C)o3)s2)c1,"inconclusive [activator, single point]",–
O=C(CN1C(=O)c2ccccc2C1=O)Nc1ccccc1C(=O)NC1CCCCCC1,–,inconclusive: 32.6% [activator]
COc1cccc(S(=O)(=O)Nc2noc3ccccc23)c1,"inconclusive [activator, single point]",–
Cc1cc(O)c(C(=O)/C=C/c2ccc(Cl)cc2)c(=O)o1,"inconclusive [activator, full curve, poor fit]",–
CC1CC(N(C(=O)c2ccco2)c2ccccc2)c2ccccc2N1 (stereo unspecified),"inconclusive [activator, single point]",–
O=C(Nc1nc(COc2ccccc2)cs1)C1CCC1,"inconclusive [activator, single point]",–
O=C(NC1CCN(C(=O)Nc2ccccc2Cl)CC1)c1cccc(F)c1,inactive,–
Clc1ccccc1Nc1nc(-c2ccncc2)nc2ccccc12,active: 35.5 µM,–
CCc1cccc(C)c1NC(=S)NCCc1c(C)[nH]c2ccc(C)cc12,"inconclusive [activator, partial curve]",–
Cc1ccc(N(CC(=O)Nc2cc(C)ccc2C)S(=O)(=O)c2c(C)noc2C)cc1,inactive,–
O=[N+]([O-])c1nn(-c2ccc3c(c2)OCCO3)n(O)c1=NC1CCCC1,active: 5.01 µM,–
COC(=O)c1ccc2nc(-c3ccco3)c(Cc3ccc(C)cc3)n2c1,active: 20 µM,–
CC(=NNC(=S)Nc1ccc(C)cc1)c1ccccn1,–,inconclusive: -72.3% [activator]
C=CCn1c(-c2ccc(OC)cc2)nc2nc3ccccc3nc21,"inconclusive [activator, single point]",–
c1csc(-c2cnc3ccccc3n2)c1,"inconclusive [activator, partial curve]",–
Cc1cccc(C(=O)n2nc(-c3cccnc3)nc2NCc2ccccc2)c1,inactive,–

SMILES,Potency,growth rescue (activation)
COc1ccc(-c2nnc(SCC(=O)N(C)C3CCCCC3)o2)cc1OC,inactive,–
O=S(=O)(NCC(c1ccco1)S(=O)(=O)c1cccs1)c1ccc(Cl)cc1 (stereo unspecified),"inconclusive [activator, partial curve]",–
COc1ccc(C(=O)CC2(C(=O)O)CCCCC2)cc1,active: 15.8 µM,–
O=C(NCCNC(=O)c1ccc(-c2ccc(Cl)c(Cl)c2)o1)c1cnccn1,"inconclusive [activator, partial curve]",–
Cc1ccc(O)c(C(=O)CC(=O)c2ccc(Cl)cc2)c1,inactive,–
COc1c(Br)cc2c(C)c(C(=O)O)oc2c1Br,inactive,–
O=C(Oc1ccc2ccccc2c1Cl)N1CCCCCC1,"inconclusive [activator, single point]",–
O=C(c1sc2ccccc2c1Cl)N1CCN(c2ncccn2)CC1,"inconclusive [activator, single point]",–
COc1cc(C(O)c2nc(-c3cc(F)cc(F)c3)cs2)ccc1F (stereo unspecified),active: 35.5 µM,–
CSCCC(C(=O)Nc1c(C)cccc1C)n1c(COc2ccc(C)cc2)nc2ccccc21 (stereo unspecified),"inconclusive [activator, partial curve]",–
COc1cc(S(=O)(=O)N2CCCCC2)c(OC)cc1Br,"inconclusive [activator, partial curve]",–
CC1(C(=O)NCc2ccc3c(c2)OCO3)CCN1C(=O)Cc1cccc2ccccc12 (stereo unspecified),"inconclusive [activator, partial curve, poor fit]",–
CC1=C(C(=O)OC2CCCCC2)C(c2ccco2)C2=C(CC(C)(C)CC2=O)N1 (stereo unspecified),inactive,–
COc1ccc(N2CCN(C(=O)c3cc(C)oc3C)CC2)cc1,"inconclusive [activator, partial curve, poor fit]",–
CCOC(=O)c1cnn(-c2ccccc2)c1-c1ccccc1,"inconclusive [activator, partial curve]",–
Cc1ccc(NC(=O)c2cc(S(=O)(=O)NC3CCCCC3)ccc2F)cc1Cl,"inconclusive [activator, single point]",–
CCOC(=O)c1cnc(SCC(=O)N2CCN(c3ccccc3)CC2)nc1N,"inconclusive [activator, single point]",–
Cc1ccc(F)cc1CNC(=O)c1cc(COc2ccc3ncccc3c2)on1,inactive,–
CO[C@@H]1CN(C)C(=O)c2cc(NC(=O)Nc3ccc(Cl)cc3)ccc2OC[C@H](C)NC[C@H]1C,"inconclusive [activator, full curve, poor fit]",–
CCc1nc(SCc2cc(=O)[nH]c3ccccc23)c2c(C)c(C)sc2n1,inactive,–
CN1CCC(N(C)C(=O)c2sc3cc(F)ccc3c2Cl)CC1,inactive,–
CCCn1c(=S)[nH]c2cc(Cl)ccc21,"inconclusive [activator, single point]",–
Cc1cccc(NC(=O)COC(=O)c2ccccc2-c2nc3ccccc3s2)c1C,"inconclusive [activator, partial curve]",–
COc1ccc(/C=C/C(=O)c2ccccc2O)cc1,"inconclusive [activator, partial curve]",–

SMILES,Potency,growth rescue (activation)
COc1cc([N+](=O)[O-])cc(/C=N/NC(=O)C(C)Nc2ccccc2C)c1O (stereo unspecified),active: 20 µM,–
CC1C(=O)N2CCCc3cc(NC(=O)C(=O)NCCCc4ccccc4)cc1c32 (stereo unspecified),"inconclusive [activator, single point]",–
Nc1c(C(=O)O)cnn1-c1ccccc1,inactive,–
CCn1c2ccccc2c2cc(NC(=S)N3CCOCC3)ccc21,"inconclusive [activator, single point]",–
O=C(NC1CCSc2ccccc21)c1ccccc1Cl (stereo unspecified),"inconclusive [activator, single point]",–
COC(=O)c1cc2oc3ccccc3c2n1Cc1nc(-c2cccc(C)c2)oc1C,"inconclusive [activator, partial curve]",–
O=C(Nc1ccc(Oc2cccc(C(F)(F)F)c2)nc1)c1ccco1,"inconclusive [activator, partial curve]",–
COc1ccc(CNC(=O)Cn2c(=O)ccc3cc(S(=O)(=O)N4CCCC4)ccc32)cc1,inactive,–
Nc1nc(SCc2ccccc2Cl)ns1,"inconclusive [activator, single point]",–
COc1ccc(C(=O)NC(=S)NCc2ccco2)cc1,"inconclusive [activator, partial curve]",–
O=C(C1=C[C@H](C2CC2)C[C@H](OCc2ccc(CO)cc2)O1)N1CCOCC1,"inconclusive [activator, partial curve]",–
COc1cc(NC(=O)c2ccccc2Cl)ccc1NC(=O)c1ccco1,"inconclusive [activator, partial curve]",–
CCOC(=O)N1CCN(C(=O)CSc2ccc(C(F)(F)F)cc2[N+](=O)[O-])CC1,"inconclusive [activator, single point]",–
COc1cccc2sc(NNC(=O)c3nc4ccccc4s3)nc12,"inconclusive [activator, partial curve]",–
Cc1c(C(=O)N2CCC(C)CC2)c(S(=O)(=O)Nc2cccc(C(F)(F)F)c2)c(C)n1C,"inconclusive [activator, partial curve]",–
Cc1ccc(C(=O)Nc2ccccc2C(=O)NCc2ccco2)cc1S(=O)(=O)N1CCCCC1,"inconclusive [activator, single point]",–
CCOc1cccc2c1Oc1nc(-c3ccccc3)nc(SCC(=O)Nc3ccc(F)cc3)c1C2,"inconclusive [activator, full curve, poor fit]",–
COc1cc(/C=N/N(C)C)ccc1OC(=O)c1cccs1,"inconclusive [activator, partial curve]",–
NC(=O)c1ccc(-n2nc(C(F)(F)F)c3c2CCCC3)cc1,inactive,–
Cc1ccc(CNCc2cccn2-c2nnc(N3CCCC3)s2)cc1,"inconclusive [activator, partial curve]",–
Cc1nc2c3cnn(-c4ccccc4)c3ncn2n1,"inconclusive [activator, single point]",–
Cn1cc(C(=O)N/N=C/c2ccc3c(c2)OCO3)c2ccccc21,–,inactive: -18.1% [at 1.82 µM]
O/C(=C\c1nc2ccccc2[nH]1)c1cccs1,"inconclusive [activator, partial curve]",–
